# Out of some 310,000 compounds screened, about 14,000 (4.5%) showed an effect of 50% or more. The effect is printed as a negative number. The list shows a part of the results.
# Target: human ether-à-go-go-related gene (hERG) potassium channel (human, UniProt Q12809)
# Assay: primary screen, population patch clamp on CHO cells stably expressing hERG
# 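Note: peak tail current of the secondary pulse compared with the same well before compound.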
# Sequence of human ether-à-go-go-related gene (hERG) potassium channel (Q12809 whole entry, looked up): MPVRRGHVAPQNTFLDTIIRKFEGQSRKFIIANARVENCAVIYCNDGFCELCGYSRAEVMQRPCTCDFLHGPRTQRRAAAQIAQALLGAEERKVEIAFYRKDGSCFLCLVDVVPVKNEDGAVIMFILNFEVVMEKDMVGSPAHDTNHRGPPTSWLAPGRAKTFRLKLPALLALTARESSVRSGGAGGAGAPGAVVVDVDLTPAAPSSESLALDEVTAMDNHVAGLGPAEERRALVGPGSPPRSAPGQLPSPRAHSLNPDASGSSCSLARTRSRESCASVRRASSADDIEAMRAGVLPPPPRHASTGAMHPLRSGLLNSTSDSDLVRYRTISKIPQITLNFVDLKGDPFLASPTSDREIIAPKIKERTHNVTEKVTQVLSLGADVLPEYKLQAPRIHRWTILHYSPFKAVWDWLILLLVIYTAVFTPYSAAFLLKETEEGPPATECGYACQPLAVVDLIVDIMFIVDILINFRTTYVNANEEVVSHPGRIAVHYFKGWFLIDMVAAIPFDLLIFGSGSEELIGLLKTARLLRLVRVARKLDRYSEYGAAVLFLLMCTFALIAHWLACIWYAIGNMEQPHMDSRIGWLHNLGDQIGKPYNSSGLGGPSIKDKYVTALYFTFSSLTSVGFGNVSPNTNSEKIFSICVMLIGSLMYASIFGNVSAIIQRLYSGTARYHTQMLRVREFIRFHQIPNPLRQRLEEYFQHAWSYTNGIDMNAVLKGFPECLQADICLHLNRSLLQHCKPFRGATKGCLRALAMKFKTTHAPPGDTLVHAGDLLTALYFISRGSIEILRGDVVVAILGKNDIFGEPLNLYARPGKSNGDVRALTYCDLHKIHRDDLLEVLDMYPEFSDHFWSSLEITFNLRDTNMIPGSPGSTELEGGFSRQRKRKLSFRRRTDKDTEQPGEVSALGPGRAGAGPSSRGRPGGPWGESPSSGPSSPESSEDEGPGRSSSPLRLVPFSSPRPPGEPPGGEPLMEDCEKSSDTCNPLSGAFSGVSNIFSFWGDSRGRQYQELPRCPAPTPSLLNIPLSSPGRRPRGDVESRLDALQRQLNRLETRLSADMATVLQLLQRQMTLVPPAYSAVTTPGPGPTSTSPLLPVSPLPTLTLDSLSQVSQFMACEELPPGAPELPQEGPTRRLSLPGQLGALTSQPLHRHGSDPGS
row,Structure (SMILES),"hERG current change (%, negative = inhibition) at 10uM [%]"
1,CCNC(=O)COC(=O)CNC(=O)c1cc(Cl)cc([N+](=O)[O-])c1,-2.83
2,O=C(NC1CCCC1)C(c1ccccc1)N(Cc1ccccc1)C(=O)c1csnn1 (stereo not shown),-19.6
3,CCN(CC)c1ccc(NC(=O)Cn2ncc3c(C)n(Cc4ccccc4F)c(C)c3c2=O)c(C)c1,7.08
4,OCc1nc2ccc(Cl)cc2[nH]1,3.62
5,Brc1cccc(-c2cnc3n2CCCCC3)c1.Cl,-48.4
6,Cn1c(=O)oc2cc(S(=O)(=O)NCc3cccnc3)ccc21,13
7,Cc1csc(NC(=O)[C@@H](NC(=O)c2ccccc2)C(C)C)n1,-2.37
8,CC1(C)CC(=O)C(C(c2ccccc2F)C2C(=O)CC(C)(C)CC2=O)C(=O)C1,14.2
9,O=C(Nc1ccc2c(c1)CCC2)c1cc(=O)[nH]c2ccccc12,2.1
10,O=C(COC(=O)c1cc(Br)ccc1O)Nc1ccc2c(c1)OCO2,2.65
11,N#Cc1ccc(NC(=O)CNc2cc(S(=O)(=O)N3CCOCC3)ccc2NCC2CCCO2)cc1 (stereo not shown),-70
12,CN(CC(=O)NCc1ccncc1)S(=O)(=O)c1ccc(Cl)cc1,-12.2
13,O=C(NCc1ccccc1)Nc1cccc2ccccc12,16.7
14,CC(=O)N1CC=CC1(CC(C)C)C(=O)NCc1cc(F)cc(C(F)(F)F)c1 (stereo not shown),2.67
15,CCCCNC(=O)Nc1ncn[nH]1,-27.7
16,CCOC(=O)c1c(C)[nH]c(C(=O)N2CCCC(C(=O)c3ccccc3OC)C2)c1C (stereo not shown),-4.49
17,Cc1nc(-c2cccc(NC(=O)C(C)Oc3ccccc3)c2)cs1 (stereo not shown),-13.7
18,O=C(c1ccc(NS(=O)(=O)c2ccc(F)cc2)cc1)N1CCCCCC1,-30.2
19,O=C(O)CCC(=O)N1CCN(c2ccc(C(=O)c3ccc(F)cc3)cc2)CC1,0.927
20,COc1ccc(S(=O)(=O)N2CCCCC2)cc1C(=O)Nc1cc(C)on1,-12.5
21,Cc1ccc(S(=O)(=O)N2CCOCC2)cc1NS(=O)(=O)c1ccc(F)c(F)c1,-4.13
22,O=C(c1ccc(Sc2ccccc2)c([N+](=O)[O-])c1)N1CCOCC1,-1.42

row,Structure (SMILES),"hERG current change (%, negative = inhibition) at 10uM [%]"
1,Cc1cc(C)c(OCCCCCn2ccnc2)c(C)c1,-24.9
2,COC(=O)CCCC[C@@H]1SC[C@@H](NC(=O)OC)[C@@H]1NC(=O)OC,5.49
3,CCc1cccc(C)c1NC(=S)N(CCCN1CCOCC1)Cc1cccnc1,-6.65
4,Cc1ccc(OCC(=O)N2CCN(c3nnc(-c4ccccc4)c4ccccc34)CC2)cc1,-61.5
5,COC(=O)c1ccc(C(C(=O)NC2CCCCC2)N(CCN2CCOCC2)C(=O)Cc2cccs2)cc1 (stereo not shown),-15.3
6,CCn1c2ccccc2c2cc(CN3CCN(S(=O)(=O)Cc4ccccc4)CC3)ccc21.O=C(O)C(=O)O,21.3
7,CCc1ccc(-n2c(=S)sc3c(=O)n(-c4ccccc4C)c(SCC(=O)O)nc32)cc1,-0.575
8,CC(C)CNS(=O)(=O)c1ccc(OCC(=O)Nc2ccc3c(c2)OCCO3)cc1,12.7
9,CN(C)/C=C/C(=O)c1ncc(C(F)(F)F)cc1Cl,8.95
10,CC(O)C(NS(=O)(=O)c1ccc(Cl)cc1)C(=O)OCC(=O)N1CCN(c2ccccc2)CC1 (stereo not shown),-25.1
11,CC(CC(=O)O)CC(=O)Nc1nncs1 (stereo not shown),-1.38
12,COC(=O)c1cc(Cl)c(NC(=O)/C=C/c2ccc(OC)cc2)cc1OC,8.16
13,Cc1cc(OCC(=O)OCC(=O)Nc2ccc(Cl)cn2)ccc1Cl,2.46
14,O=[N+]([O-])c1cccc(S(=O)(=O)N2CCCCC2)c1,8.54
15,CS(=O)(=O)O.c1cnc(N2CCN(Cc3ccc4c(c3)OCO4)CC2)nc1,3.93
16,CCc1cc(C(=O)NNC(=S)Nc2ccccc2C)cs1,-4.76
17,Cl.c1ccc2c(c1)oc1c(Nc3ccc4c(c3)OCCO4)ncnc12,5.01
18,O=C(Cc1ccccc1)NCC(=O)N/N=C/c1cccs1,14.9
19,O=C(CSc1nnc(NC(=O)c2cccc(F)c2)s1)NCc1ccco1,15.6
20,O=C(c1ccco1)N1CCN(C(=O)c2cccc3c2C(=O)N(C2CCCCC2)C3)CC1,2.99
21,Cc1ccc(NC(=S)NC(=O)/C=C/c2ccc(Cl)cc2)cc1,13

# Reference: article PMC4336329 (PLoS ONE, 2015)
